Measured values from PubChem BioAssay AID651820 (National Center for Advancing Translational Sciences (NCATS), 2012).
The whole screen tested about 340,000 compounds, of which about 12,000 (3.5%) were called active. Inconclusive results, whose numbers are uncertain, are shown with a selection of clear calls. The call rests on the fitted dose curve; in most records, active means well fitted inhibition curve with a large enough effect; inconclusive means small, poorly fitted or top-dose-only effect, or another doubt; inactive means no such curve, though single readings can be large or run the other way. Potencies of inconclusive entries are left out as doubtful fits.

assay: qHTS Assay for Inhibitors of Hepatitis C Virus (HCV); conditions: Huh7.5.1 HCVcc-Cre (HCVcc is cell-culture hepatitis C virus) infection, luciferase reporter, 44 h; activity change, negative = inhibition: at 41.8 µM (top of the series)
Outline: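 Infectious HCV cell culture screen: compound-treated cells (1,000/well, pre-plated 4 h) are infected with HCVcc-Cre at roughly 0.5 moi and grown 44 h. Infection is quantified by luciferase signal after 15 min substrate incubation at room temperature.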
On the % scale 0 is the no-effect control and ±100 the full control effect; potency means the concentration at half of the fitted maximal effect; tags describe the fitted curve by direction and shape.

SMILES	activity change, negative = inhibition	Potency
CSc1ccc(S(=O)(=O)NCC(=O)OCC(=O)N2CCC(C)CC2)cc1[N+](=O)[O-]	inactive: 5.7%	
CCN(CC)c1ccc(/C=N/NC(=O)c2cc3ccccc3[nH]2)cc1		inconclusive [inhibitor, single point]
COCCNC(=O)c1ccc(CS(=O)(=O)c2ccc(C)cc2)o1	inactive: 12.5%	
Cn1nc(C(F)(F)F)c2cc(C(=O)Nc3ccc(F)cc3)sc21		inconclusive [inhibitor, full curve, poor fit]
O=C(NCCCN1CCOCC1)c1ccc2c(=O)n(CCc3ccccc3)c(=O)[nH]c2c1		inconclusive [inhibitor, partial curve]
O=C(Nc1cc(Cl)ccc1N1CCOCC1)c1ccco1		inconclusive [inhibitor, full curve]
Cc1ccccc1Oc1nc(-c2ccccn2)nc2ccccc12		active: 7.94 µM
CCN(CC)c1ccc(C=C(c2nnnn2-c2ccc(C)cc2)c2nnnn2-c2ccc(C)cc2)cc1	inactive: 20.5%	
CCC(=O)c1ccc(OCC(O)CNC(C)c2ccccc2)cc1 (configuration not stated)		inconclusive [inhibitor, partial curve]
CC1CCC2C(=O)N(c3ccc(Cc4ccncc4)cc3)C(=O)C2C1 (configuration not stated)		inconclusive [inhibitor, single point]
NC(=O)c1ccc(OCCC(O)N2CC=C(c3ccc(F)cc3)CC2)cc1 (configuration not stated)		inconclusive [inhibitor, single point]
Cc1onc(-c2ccccc2)c1C(=O)NC(=S)NNC(=O)c1ccccc1O		inconclusive [inhibitor, single point]
CCN(CC)C(=O)c1ccc(NC(=O)c2cccc(S(=O)(=O)N3CCN(Cc4ccccc4)CC3)c2)cc1		active: 6.31 µM
CCOC(=O)C1=C(C)NC(=O)NC1c1ccc(-c2ccccc2F)o1 (configuration not stated)		inconclusive [inhibitor, single point]
CC(C)c1ccc(NC(=O)CCNC(=O)Cn2cnc3ccccc3c2=O)cc1		inconclusive [inhibitor, single point]
CC(=O)Nc1cccc(C(=O)Nc2nc(C)cs2)c1	inactive: -2.74%	
CCc1ccc2[nH]c(=O)c(CN(Cc3ccccc3OC)C(=O)Nc3ccccc3OC)cc2c1		active: 7.94 µM
CSc1cc(C)c(OCC(=O)Nc2c(C)nn(C)c2C)c(C)c1		inconclusive [inhibitor, single point]
COc1cccc(CNC(=O)CSc2ccc(-c3ccccn3)nn2)c1	inactive: -0.851%	
COc1ccc2oc(C(=O)Nc3cccc(S(=O)(=O)N4CCOCC4)c3)c(C)c2c1		inconclusive [inhibitor, full curve]
Nc1cc(Cl)cc2c1-c1ccc(Cl)cc1C2O (configuration not stated)	inconclusive: -32.9% [inhibitor]	
Brc1ccsc1-c1csc(-c2ccncc2)n1		inconclusive [inhibitor, single point]
CCCn1c(SCC(=O)Nc2cccc(C)n2)nc2c1c(=O)n(C)c(=O)n2C		inconclusive [inhibitor, full curve, poor fit]

SMILES	activity change, negative = inhibition	Potency
Cc1ccc(C(=O)CSc2nnc(Cn3nnc4ccccc43)n2C)cc1		inconclusive [inhibitor, full curve, poor fit]
COc1cc(-c2nnc(-c3cc(-c4ccccc4)nc4ccccc34)o2)cc(OC)c1OC		inconclusive [inhibitor, partial curve]
CC1CN(CCOc2ccccc2[N+](=O)[O-])CC(C)O1 (configuration not stated)		inconclusive [inhibitor, single point]
Cc1nc(C(=O)NNC(=O)c2ccc(C(F)(F)F)cc2)cs1		inconclusive [inhibitor, single point]
O=C(CCN1C(=O)CSc2ccccc21)Nc1cccc(C(F)(F)F)c1		inconclusive [inhibitor, partial curve]
CC(=O)c1ccc(NC(=O)NC2CCCc3ccccc32)cc1 (configuration not stated)		inconclusive [inhibitor, full curve]
COc1ccc(NC(=O)/C(=C\c2ccc(OC)c(OC)c2)NC(=O)c2ccco2)cc1	inactive: -10.6%	
O=S(=O)(c1cccc(-c2csc(-c3ccccc3)n2)c1)N1CCOCC1		inconclusive [inhibitor, single point]
CC1=CC(C)(C)NC(=S)N1c1ccc2ccccc2c1		inconclusive [inhibitor, single point]
Cc1cc(N2CCC(N(C)C3CCCC3)CC2)nc2cc(O)ccc12		inconclusive [inhibitor, partial curve]
CN1CCN(Cc2cc(COCc3ccccc3)c3cccnc3c2O)CC1		active: 3.16 µM
COc1ccc(OC)c(CCNC(=O)CS(=O)(=O)Cc2nc(-c3ccccc3C)oc2C)c1		inconclusive [inhibitor, partial curve]
O=C(NC(=S)NCc1cccnc1)c1ccccc1	inactive: 14.2%	
O=C(COC(=O)c1n[nH]c2ccccc12)Nc1cccc(S(=O)(=O)N2CCOCC2)c1	inactive: -18.1%	
O=C(c1ccc(COc2ccccc2)o1)N1CCN(S(=O)(=O)c2ccccc2Cl)CC1		inconclusive [inhibitor, single point]
O=C(O/N=C1\CCCCC1c1ccc([N+](=O)[O-])cc1[N+](=O)[O-])c1c(F)cccc1F (configuration not stated)		inconclusive [inhibitor, single point]
COc1ccc(Cl)cc1C(=O)O/N=C(\N)c1ccccn1		inconclusive [inhibitor, single point]
O=C(Nc1ccc(N2CCOCC2)c(Cl)c1)c1ccc(Cl)cc1		active: 10 µM
O=C(CN1CCN(c2ccccc2O)CC1)Nc1cccnc1Cl		inconclusive [inhibitor, single point]
CCCCC(=O)N1CCN(c2nc3ccc(Br)cc3s2)CC1		active: 11.2 µM
COc1ccc(-n2nnnc2SCC(=O)Nc2ccc(OC)cc2OC)cc1	inconclusive: -35.9% [inhibitor]	
COc1cc2c(cc1OC)CN(CCC(C)c1ccc(Cl)cc1)CC2 (configuration not stated)		inconclusive [inhibitor, partial curve]
O=C(Nc1ncc(Cc2ccccc2)s1)C1CCCO1 (configuration not stated)	inactive: 5.42%	

SMILES	activity change, negative = inhibition	Potency
COc1ccc(OC)c(NC(=O)C2CCCCC2)c1		inconclusive [inhibitor, single point]
C=CCOC(=O)C1=C[C@@H](c2ccc3c(c2)OCO3)C[C@@H](OCc2ccc(CO)cc2)O1		inconclusive [inhibitor, single point]
CCOc1ccc(N=Cc2c(O)n(-c3cccc(C)n3)c(=O)c3ccccc23)cc1		inconclusive [inhibitor, single point]
CCOC(=O)C1=C(COC(=O)c2ccc(C)c(S(=O)(=O)N3CCOCC3)c2)NC(=O)NC1C (configuration not stated)		inconclusive [inhibitor, single point]
CN1CCN(c2cc3c(cc2F)c(=O)c(C(=O)O)cn3CCF)CC1		inconclusive [inhibitor, single point]
COc1ccc(-c2cccc(C(=O)Nc3ccc(OC)c(OC)c3)c2)cc1		inconclusive [inhibitor, single point]
COc1cccc(CC2(CO)CCCN(Cc3c(C)cc(C)cc3-n3cccn3)C2)c1 (configuration not stated)		inconclusive [inhibitor, single point]
O=C(CCc1ccccc1)NC(NC(=S)Nc1cccc(Cl)c1)C(Cl)(Cl)Cl (configuration not stated)	inactive: -12.1%	
CCOc1ccccc1C(=O)N[C@H](C(=O)OCc1cc([N+](=O)[O-])cc2c1OCOC2)C(C)C		active: 20 µM
COc1ccc(N2CCC(CNC(=S)Nc3c(C)cc(C)cc3C)C2)cc1 (configuration not stated)		inconclusive [inhibitor, single point]
CCOC(=O)C1CCN(C(=O)CNC(=O)c2nn(-c3ccc(OC)c(OC)c3)c(=O)c3ccccc23)CC1	inactive: 3.92%	
COc1ccc(-n2c(C)cc(-c3cn4cccc(C)c4n3)c2C)cc1		inconclusive [inhibitor, single point]
CC(=O)c1c(NCCc2ccccc2)nc(=S)n(-c2ccccc2)c1C		inconclusive [inhibitor, single point]
C/C(=N\O)C(=O)NCCN(C)C		inconclusive [inhibitor, partial curve]
Cc1cc(NC(=O)CSc2nnc(-c3ccccc3)n2Cc2ccco2)no1	inactive: -12.6%	
Cc1ccc(OCC(=O)Nc2ccc(N3CCN(C(=O)c4ccco4)CC3)cc2)cc1		inconclusive [inhibitor, partial curve]
O=C(NC12CC3CC(CC(C3)C1)C2)N1CCN(C(=O)c2ccco2)CC1	inactive: 17.5%	
CCOC(=O)N1CCC(NC(=O)c2ccc3c(c2)sc2nc(-c4ccccc4)cn23)CC1		inconclusive [inhibitor, full curve, poor fit]
CC(C)(C)OC(=O)NCCCCCNC(=O)c1ncn(Cc2ccccc2)c1C(=O)NCCCCCNC(=O)OC(C)(C)C		inconclusive [inhibitor, single point]
Nc1nc(NCc2ccco2)nc(Nc2cccc(F)c2)c1[N+](=O)[O-]		inconclusive [inhibitor, single point]
O=C(Nc1cccc(S(=O)(=O)NC2=NCCC2)c1)c1cc(Cl)ccc1[N+](=O)[O-]		inconclusive [inhibitor, partial curve]
